Measurements: PubChem BioAssay AID1508623 (National Center for Advancing Translational Sciences (NCATS), 2021)
Screen size: about 48,000 compounds; about 450 (0.94%) were called active. Inconclusive results (about 19%) are left out. Calls follow the shape of the dose curve; as a rule, active = well fitted inhibition curve with a large enough effect; inconclusive = small, poorly fitted or top-dose-only effect; inactive = no such curve, though single readings can be large or run the other way. This is one part of the list.

test: Primary qHTS for Identification of Small Molecule Inhibitors of Huntingtin Promoter Activity; details: HEK293 HTT promoter firefly luciferase reporter (activity 0% = vehicle and -100% = no light), 24 h; activity change, negative = inhibition: at the top concentration; also: nearly all actives have a fitted effect of over 50% in size
Procedure, shortened: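 Firefly luciferase readout (Dual-Glo, 10 min RT) after 24 h, 37 °C compound exposure (final up to 57.5 uM) of HEK293 reporter cells cultured 24 h beforehand; PTC124 at 50 uM final as control inhibitor; activity scaled vehicle 0%, zero RLU -100%.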

| SMILES | activity change, negative = inhibition |
| --- | --- |
| NC1(c2ccccc2)CCCCC1 | inactive: -12% [at 116 µM] |
| C[C@]12CC[C@@H]3[C@@H](CCC4=CC(=O)CC[C@@H]43)[C@@H]1CC[C@@H]2OC(=O)CCc1ccccc1 | inactive: 2.96% |
| CCOC(=O)NC(C)(C)Cc1ccc(Cl)cc1 | inactive: -2.55% |
| CC(C)c1ccc(OCC(=O)N2CCN(CCc3ccncc3)CC2)cc1 | inactive: 20.5% |
| CCOc1ccc(CN(CCc2ccc3c(c2)OCO3)Cc2cc(OC)ccc2O)cc1 | inactive: 43.9% |
| Cc1c(C(=O)Nc2cccc(C(F)(F)F)c2)cc(-c2ccccc2)n1CCCN1CCOCC1 | inactive: 1.56% |
| Cc1cc(OCC(=O)N2CCN(CCc3ccncc3)CC2)ccc1Cl | inactive: -12.5% |
| CSc1ccc(/C=C/c2nc3ccccc3c(=O)n2-c2cccc(Cl)c2C)cc1 | inactive: -27.1% |
| O=C(O)c1cc(Oc2ccc(C(F)(F)F)cc2Cl)ccc1[N+](=O)[O-] | inactive: 7.75% |
| Cc1ncc2n1-c1ccc(Cl)cc1C(c1ccccc1F)=NC2 | inactive: 12.5% |
| Cc1ccc(NC(=O)N(Cc2ccc3c(c2)OCO3)C2CCN(Cc3ccccc3)CC2)cc1C | inactive: -28.8% |
| Nc1ccc(Sc2ccc(N)cc2)cc1 | inactive: 5.03% [at 116 µM] |
| CCC(=O)OC1(c2ccccc2)CCN(C)CC1 | inactive: 0.98% [at 116 µM] |
| COc1ccc(OC)c(C(c2c(O)c3ccccc3oc2=O)c2c(C)n(C)n(-c3ccccc3)c2=O)c1 (centres undefined) | inactive: 0.0859% |
| Cc1ccc2c(c1)C1CN(C)CCC1N2 (centres undefined) | inactive: 4.39% [at 25.2 µM] |
| CC(C)(O)C(=O)Nc1ccc([N+](=O)[O-])c(C(F)(F)F)c1 | inactive: -13.9% |
| CNC(=O)NC(O)C(Cl)(Cl)Cl (centres undefined) | inactive: 1.24% |
| O=C(O)CNC(=O)c1c(O)c2ccccc2n(Cc2ccccc2)c1=O | inactive: 2.97% |
| Cc1ccc(OCC(=O)Nc2ccc(Cl)cc2C(=O)c2ccccc2)cc1 | inactive: 1% |
| O=S1(=O)N(Cc2ccccc2)CCCN1Cc1ccc(F)cc1Cl | inactive: -0.87% |
| Cc1c(C(=O)c2cccc3ccccc23)c2cccc3c2n1[C@H](CN1CCOCC1)CO3 | inactive: -26.6% |
| CC1Sc2c(C(=O)O)c(=O)c3cc(F)c(N4CCNCC4)cc3n21 (centres undefined) | inactive: 12.7% |

| SMILES | activity change, negative = inhibition |
| --- | --- |
| O=c1oc2ccccc2c(O)c1C(CC(O)c1ccc(-c2ccc(Br)cc2)cc1)c1ccccc1 (centres undefined) | inactive: -9.42% |
| O=C(Nc1ccc(Br)cc1C(=O)c1ccccc1)c1ccccc1 | inactive: -0.793% |
| CCCOC(=O)Cc1ccc(OCC(=O)N(CC)CC)c(OC)c1 | inactive: -9.52% |
| CC(CCc1ccccc1)NC(C)C(O)c1ccc(O)cc1 (centres undefined) | inactive: -11.7% |
| OCCCBr | inactive: 11.6% [at 116 µM] |
| C[C@]12CC[C@H]3[C@@H](CCC4=CC(=O)CC[C@@H]43)[C@@H]1CC[C@@H]2OC(=O)CCc1ccccc1 | inactive: 2.33% |
| O=C1NCN(c2ccccc2)C12CCN(CC1COc3ccccc3O1)CC2 (centres undefined) | inactive: -4.06% |
| CC(C)(N)Cc1ccccc1Cl | inactive: -6.83% |
| c1ccc2nc(N3CCNCC3)ccc2c1 | inactive: 1.79% |
| Oc1c(Br)cc(Br)cc1Br | inactive: 18.3% |
| CCNC(=O)C[C@@H]1N=C(c2ccc(Cl)cc2)c2cc(OC)ccc2-n2c(C)nnc21 | inactive: -4.71% |
| COc1ccc(OCC(=O)N2CCN(Cc3cccc(OC)c3OC)CC2)cc1 | inactive: -29.6% |
| NNc1ccccc1 | inactive: -16.3% |
| Clc1cccc(N2CCNCC2)c1 | inactive: -8.08% |
| CCCN(CCC)C(=O)Cc1c(-c2ccc(Cl)cc2)nc2ccc(Cl)cn12 | inactive: -3.54% |
| CCCOC(=O)c1cncn1C(C)c1ccccc1 (centres undefined) | inactive: 3.13% |
| CC[C@@]1(O)C(=O)OCc2c1cc1n(c2=O)Cc2cc3ccccc3nc2-1 | inactive: -26.9% |
| CN(C)CCc1c[nH]c2ccc(O)cc12 | inactive: -1.9% [at 116 µM] |
| CCCC[N+]1(C)[C@@H]2CC(OC(=O)[C@H](CO)c3ccccc3)C[C@H]1[C@@H]1O[C@@H]12 (some centres undefined) | inactive: -1.3% |
| Cc1cccc2sc(NC(=O)c3cccn(Cc4ccccc4)c3=O)nc12 | inactive: 0% |
| Cc1cc(NC(=O)c2cccn(Cc3ccccc3)c2=O)no1 | inactive: 22.2% |
| O=C(CN1C(=O)CN=C(c2ccccc2)c2ccccc21)Nc1cccc(C(F)(F)F)c1 | inactive: -18.5% |

| SMILES | activity change, negative = inhibition |
| --- | --- |
| CC(C)(C)NCC(O)c1cc(Cl)c(N)c(C(F)(F)F)c1 (centres undefined) | inactive: 2.09% |
| CC(C)=CC1C(C(=O)OCN2C(=O)C3=C(CCCC3)C2=O)C1(C)C (centres undefined) | inactive: -10% |
| Cc1ncc(CNC(=O)N(CCCl)N=O)c(N)n1 | inactive: -8.89% |
| COc1cc(C[C@@H](C)N)c(OC)cc1C | inactive: -4.53% [at 116 µM] |
| CC(C)(O)C(Cl)(Cl)Cl | inactive: -1.95% |
| CCOc1ccc(CN(CCc2ccc3c(c2)OCO3)Cc2cccc(C)c2)cc1 | inactive: -29.3% |
| Cc1cc(OCC(=O)N2CCN(CCc3ccccn3)CC2)cc(C)c1Cl | inactive: -13.2% |
| Oc1cccc2cccnc12 | inactive |
| COc1cc(CC(C)N)cc(OC)c1OC (centres undefined) | inactive: -2.86% [at 116 µM] |
| Cc1ccc(Cl)c(O)c1 | inactive: 3.06% |
| COc1ccc2[nH]cc(CCN(C(C)C)C(C)C)c2c1 | inactive: 3.35% [at 116 µM] |
| CN1C[C@@H](NS(=O)(=O)N(C)C)C[C@@H]2c3cccc4c3c(cn4C)C[C@H]21 | inactive: 4.12% |
| Cc1cccc(C2CC(=O)Oc3c2c(=O)oc2ccccc32)c1 (centres undefined) | inactive: 9.77% |
| COc1ccc(CN2CCN(C(=O)COc3ccccc3)CC2)c(OC)c1 | inactive: -26.8% |
| Oc1ccc2c3c1O[C@H]1c4[nH]c5c(c4C[C@@]4(O)[C@@H](C2)N(CC2CC2)CC[C@]314)C[C@@]1(O)[C@H]2Cc3ccc(O)c4c3[C@@]1(CCN2CC1CC1)[C@H]5O4 | inactive: 5.17% |
| CCC1(c2ccccc2)CCC(=O)NC1=O (centres undefined) | inactive: -5.88% |
| c1cc2ccc3cccc4ccc(c1)c2c34 | inactive: -2.38% [at 116 µM] |
| COc1ccc2c3c1O[C@H]1[C@@H](O)C=C[C@H]4[C@@H](C2)N(C)CC[C@@]341 | inactive: -25.6% [at 116 µM] |
| CCCCC(CC)COC(=O)c1ccccc1C(=O)OCC(CC)CCCC (centres undefined) | inactive: 18.4% [at 116 µM] |
| Oc1ccc(Cl)cc1Cc1ccccc1 | inactive |
